{
  "source": "paper PMC4336329",
  "about": "(PLoS ONE, 2015)",
  "note": "Hit rate of the full screen: of about 310,000 compounds, about 14,000 (4.5%) showed an effect of 50% or more. Effects have a minus sign here. This is one part of the list.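 Further: peak tail current of the secondary pulse compared with the same well before compound.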",
  "data": [
    {"target": "human ether-à-go-go-related gene (hERG) potassium channel (human, UniProt Q12809)", "sequence (Q12809 whole entry, looked up)": "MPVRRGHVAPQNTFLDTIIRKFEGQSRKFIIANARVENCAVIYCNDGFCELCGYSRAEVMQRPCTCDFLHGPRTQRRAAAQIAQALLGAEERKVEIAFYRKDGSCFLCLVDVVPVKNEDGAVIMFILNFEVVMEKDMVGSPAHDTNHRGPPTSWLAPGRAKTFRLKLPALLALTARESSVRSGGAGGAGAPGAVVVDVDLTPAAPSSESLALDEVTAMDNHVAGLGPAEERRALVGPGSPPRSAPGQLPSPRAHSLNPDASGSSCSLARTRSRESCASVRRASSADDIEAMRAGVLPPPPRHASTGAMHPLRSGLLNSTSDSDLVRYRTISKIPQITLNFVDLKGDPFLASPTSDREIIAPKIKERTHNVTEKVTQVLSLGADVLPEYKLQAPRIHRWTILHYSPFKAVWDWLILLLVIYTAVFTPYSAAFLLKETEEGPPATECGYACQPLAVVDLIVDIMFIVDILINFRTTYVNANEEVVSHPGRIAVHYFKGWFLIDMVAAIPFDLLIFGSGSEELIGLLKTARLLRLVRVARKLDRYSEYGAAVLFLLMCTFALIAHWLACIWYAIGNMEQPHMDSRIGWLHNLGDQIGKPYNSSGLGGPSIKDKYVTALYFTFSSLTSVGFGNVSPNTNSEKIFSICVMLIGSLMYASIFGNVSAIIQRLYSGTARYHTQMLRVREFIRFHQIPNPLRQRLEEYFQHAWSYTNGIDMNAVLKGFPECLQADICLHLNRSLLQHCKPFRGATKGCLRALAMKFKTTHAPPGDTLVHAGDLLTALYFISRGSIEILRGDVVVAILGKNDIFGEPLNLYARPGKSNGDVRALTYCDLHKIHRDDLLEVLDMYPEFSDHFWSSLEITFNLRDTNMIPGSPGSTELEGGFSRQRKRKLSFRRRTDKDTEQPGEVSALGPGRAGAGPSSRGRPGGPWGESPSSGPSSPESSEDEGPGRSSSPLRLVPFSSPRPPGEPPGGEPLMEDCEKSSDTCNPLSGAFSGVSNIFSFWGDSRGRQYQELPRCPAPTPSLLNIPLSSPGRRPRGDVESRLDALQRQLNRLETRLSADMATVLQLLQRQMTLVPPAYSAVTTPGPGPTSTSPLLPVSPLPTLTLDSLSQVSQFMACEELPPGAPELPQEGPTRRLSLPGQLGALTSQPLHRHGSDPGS", "assay": "primary screen, population patch clamp on CHO cells stably expressing hERG", "units": {"hERG current change (%, negative = inhibition) at 10uM": "%"}, "values": [
      {"compound": "CCOc1ccc(NC(=O)CCNC(=O)Cn2cnc3ccccc3c2=O)cc1", "hERG current change (%, negative = inhibition) at 10uM": 19.6},
      {"compound": "COc1cccc(C(=O)Nc2ccccc2OC(F)(F)F)c1", "hERG current change (%, negative = inhibition) at 10uM": 6.11},
      {"compound": "CC(C)(C)C(=O)NCC12C=CC(O1)C1C(=O)N(c3ccccc3)C(=O)C12", "note": "(stereo not drawn)", "hERG current change (%, negative = inhibition) at 10uM": 3.87},
      {"compound": "COc1ccc(NC(=O)CSc2nnc3ccc(-c4cccnc4)nn23)c(OC)c1", "hERG current change (%, negative = inhibition) at 10uM": -12.5},
      {"compound": "CCOC(=O)c1c(C)[nH]c(C)c1C(=O)CSc1nnc(-c2ccc(OC(F)F)cc2)o1", "hERG current change (%, negative = inhibition) at 10uM": 7.68},
      {"compound": "Cc1ccc(-c2nc(CS(=O)CC(=O)NCc3ccco3)c(C)o2)cc1", "note": "(stereo not drawn)", "hERG current change (%, negative = inhibition) at 10uM": 1.07},
      {"compound": "CCCNC(=O)CN(C)C(=O)c1n[nH]c2ccccc12", "hERG current change (%, negative = inhibition) at 10uM": -12.9},
      {"compound": "CN1CCC(N(C)S(=O)(=O)c2ccc(NC(=O)Cc3ccc(F)cc3)cc2)CC1", "hERG current change (%, negative = inhibition) at 10uM": 2.41},
      {"compound": "C[C@H]1COC2=C1C(=O)C(=O)c1c2ccc2c1CCCC2(C)C", "hERG current change (%, negative = inhibition) at 10uM": 2.83},
      {"compound": "Cc1nnc(SCC(=O)NC2CCCc3ccccc32)n1-c1ccccc1", "note": "(stereo not drawn)", "hERG current change (%, negative = inhibition) at 10uM": -0.602},
      {"compound": "O=C(Cn1nc(C(F)(F)F)c2c1CCCC2)NC1CCCC1", "hERG current change (%, negative = inhibition) at 10uM": -13.2},
      {"compound": "CCCCN=c1sc(C(=O)OC)cc(=O)n1CCCC", "hERG current change (%, negative = inhibition) at 10uM": 7.92},
      {"compound": "O=C(CN1CCN(c2ccccc2F)CC1)Nc1ccc2c(c1)CCC2", "hERG current change (%, negative = inhibition) at 10uM": 8.18},
      {"compound": "Cc1csc2nc(SCC(=O)Nc3ccccc3F)[nH]c(=O)c12", "hERG current change (%, negative = inhibition) at 10uM": 24},
      {"compound": "CSc1ccccc1NC(=S)NCc1ccc(Cl)cc1", "hERG current change (%, negative = inhibition) at 10uM": -12.3},
      {"compound": "CSc1nc2ncc3c(n2n1)CC1c2ccccc2CCN1C3=O", "note": "(stereo not drawn)", "hERG current change (%, negative = inhibition) at 10uM": -45.4},
      {"compound": "O=C(COC(=O)/C=C/c1ccc(Cl)cc1)NCCC1=CCCCC1", "hERG current change (%, negative = inhibition) at 10uM": -0.806},
      {"compound": "COc1cc(/C=C/C(=O)O)cc(S(=O)(=O)N2CCc3ccccc3C2)c1OC", "hERG current change (%, negative = inhibition) at 10uM": 16.6},
      {"compound": "O=C(C1CCN(S(=O)(=O)c2cccs2)CC1)N1CCCC(C(F)(F)F)C1", "note": "(stereo not drawn)", "hERG current change (%, negative = inhibition) at 10uM": 13.8},
      {"compound": "CCn1c(SCC(=O)Nc2ccccc2-c2ccccc2)nnc1-c1ccoc1C", "hERG current change (%, negative = inhibition) at 10uM": -22.4},
      {"compound": "COc1ccccc1NC(=O)NNC(=O)c1ccc(-c2ccccc2)cc1", "hERG current change (%, negative = inhibition) at 10uM": -14.7},
      {"compound": "Cc1cc(Cl)nc(NC(=O)Nc2cccc(Cl)c2)n1", "hERG current change (%, negative = inhibition) at 10uM": 3.43},
      {"compound": "CCOc1cc2nc(-c3ccc(OC)c(OC)c3)nc(NCCCN3CCOCC3)c2cc1OC", "hERG current change (%, negative = inhibition) at 10uM": 2.94},
      {"compound": "CC12C(=O)N(c3nccs3)C(=O)C1C1C=CC2C1", "note": "(stereo not drawn)", "hERG current change (%, negative = inhibition) at 10uM": 6.82},
      {"compound": "CC(C)(C)NC(=O)COC(=O)c1ccccc1Nc1ccc(SC(F)F)cc1", "hERG current change (%, negative = inhibition) at 10uM": -12},
      {"compound": "COc1cccc(N/N=C/c2cccc(Br)c2O)c1", "hERG current change (%, negative = inhibition) at 10uM": -11.1},
      {"compound": "O=C(c1cccc(NC2=NC3CS(=O)(=O)CC3S2)c1)N1CCN(c2ncccn2)CC1", "note": "(stereo not drawn)", "hERG current change (%, negative = inhibition) at 10uM": 11.7},
      {"compound": "C/C(Cn1nnc([N+](=O)[O-])n1)=N\\NC(=O)c1ccc(O)cc1O", "hERG current change (%, negative = inhibition) at 10uM": 16.8},
      {"compound": "CCSC1=C(C#N)C(c2cccc(Br)c2)CC(=O)N1", "note": "(stereo not drawn)", "hERG current change (%, negative = inhibition) at 10uM": 16},
      {"compound": "COc1cccc(-c2nnc(NC(=O)c3cccc(F)c3)o2)c1", "hERG current change (%, negative = inhibition) at 10uM": 28.3},
      {"compound": "COc1ccc(-c2[nH]ncc2CN2CCN(c3ccc(F)cc3)CC2)cc1", "hERG current change (%, negative = inhibition) at 10uM": -45.7},
      {"compound": "CCOc1ccccc1NC(=O)c1csc(C)c1C", "hERG current change (%, negative = inhibition) at 10uM": -25.4},
      {"compound": "Cc1cc(O)c(-c2cc(C(=O)Nc3cccnc3)[nH]n2)cc1C", "hERG current change (%, negative = inhibition) at 10uM": 20.2},
      {"compound": "Cc1c(C(=S)Nc2ccccc2)cnn1-c1ccc([N+](=O)[O-])cc1", "hERG current change (%, negative = inhibition) at 10uM": -32.7},
      {"compound": "CC(C)c1ccc(/C=N/NC(=O)c2ccccn2)cc1", "hERG current change (%, negative = inhibition) at 10uM": -19.7},
      {"compound": "CC(=O)N/C(=C/c1ccc2c(c1)OCO2)C(=O)NCCO", "hERG current change (%, negative = inhibition) at 10uM": 9.66},
      {"compound": "Cl.O=C1CN=C(Nc2ccc(Cl)cc2)N1c1ccccc1", "hERG current change (%, negative = inhibition) at 10uM": 16.5},
      {"compound": "O=c1c2[nH]c3ccc(F)cc3c2ncn1CCN1CCN(Cc2ccccc2)CC1", "hERG current change (%, negative = inhibition) at 10uM": -63.2},
      {"compound": "CC(C)[C@H](NC(=O)[C@@H]1CSC2c3ccccc3C(=O)N21)C(=O)NCc1ccco1", "note": "(stereo partly drawn)", "hERG current change (%, negative = inhibition) at 10uM": 3.1},
      {"compound": "Cc1ccc(Cl)cc1NC(=O)COC(=O)c1ccc(N2CCCC2)c([N+](=O)[O-])c1", "hERG current change (%, negative = inhibition) at 10uM": -9.73},
      {"compound": "Cc1ccc(CNS(=O)(=O)c2ccc(-c3cnc(C4CC4)o3)cc2)cc1", "hERG current change (%, negative = inhibition) at 10uM": 16.5},
      {"compound": "CC1Cc2ccccc2N1Cc1nc2cc(C(F)(F)F)ccc2c(=O)[nH]1", "note": "(stereo not drawn)", "hERG current change (%, negative = inhibition) at 10uM": 5.95},
      {"compound": "COC(=O)c1ccc(NC(=O)CN(C)S(=O)(=O)c2ccc(OC)c(C)c2)cc1", "hERG current change (%, negative = inhibition) at 10uM": 12.9},
      {"compound": "O=C(CCCc1nc(-c2ccc(Cl)cc2)no1)N1CCOCC1", "hERG current change (%, negative = inhibition) at 10uM": -28.4},
      {"compound": "COc1cccc(CC(=O)Nc2ccc(-c3csc(C)n3)cc2)c1", "hERG current change (%, negative = inhibition) at 10uM": 22}
    ]}
  ]
}
